Hit rate of the full screen: of about 310,000 compounds, about 2,200 (0.71%) showed an effect of 50% or more. Effects have a minus sign here. Some of the results follow.
Each molecule was assayed against human ether-à-go-go-related gene (hERG) potassium channel (human, UniProt Q12809) (assay: primary screen, population patch clamp on CHO cells stably expressing hERG).
human ether-à-go-go-related gene (hERG) potassium channel, sequence (Q12809 whole entry, looked up): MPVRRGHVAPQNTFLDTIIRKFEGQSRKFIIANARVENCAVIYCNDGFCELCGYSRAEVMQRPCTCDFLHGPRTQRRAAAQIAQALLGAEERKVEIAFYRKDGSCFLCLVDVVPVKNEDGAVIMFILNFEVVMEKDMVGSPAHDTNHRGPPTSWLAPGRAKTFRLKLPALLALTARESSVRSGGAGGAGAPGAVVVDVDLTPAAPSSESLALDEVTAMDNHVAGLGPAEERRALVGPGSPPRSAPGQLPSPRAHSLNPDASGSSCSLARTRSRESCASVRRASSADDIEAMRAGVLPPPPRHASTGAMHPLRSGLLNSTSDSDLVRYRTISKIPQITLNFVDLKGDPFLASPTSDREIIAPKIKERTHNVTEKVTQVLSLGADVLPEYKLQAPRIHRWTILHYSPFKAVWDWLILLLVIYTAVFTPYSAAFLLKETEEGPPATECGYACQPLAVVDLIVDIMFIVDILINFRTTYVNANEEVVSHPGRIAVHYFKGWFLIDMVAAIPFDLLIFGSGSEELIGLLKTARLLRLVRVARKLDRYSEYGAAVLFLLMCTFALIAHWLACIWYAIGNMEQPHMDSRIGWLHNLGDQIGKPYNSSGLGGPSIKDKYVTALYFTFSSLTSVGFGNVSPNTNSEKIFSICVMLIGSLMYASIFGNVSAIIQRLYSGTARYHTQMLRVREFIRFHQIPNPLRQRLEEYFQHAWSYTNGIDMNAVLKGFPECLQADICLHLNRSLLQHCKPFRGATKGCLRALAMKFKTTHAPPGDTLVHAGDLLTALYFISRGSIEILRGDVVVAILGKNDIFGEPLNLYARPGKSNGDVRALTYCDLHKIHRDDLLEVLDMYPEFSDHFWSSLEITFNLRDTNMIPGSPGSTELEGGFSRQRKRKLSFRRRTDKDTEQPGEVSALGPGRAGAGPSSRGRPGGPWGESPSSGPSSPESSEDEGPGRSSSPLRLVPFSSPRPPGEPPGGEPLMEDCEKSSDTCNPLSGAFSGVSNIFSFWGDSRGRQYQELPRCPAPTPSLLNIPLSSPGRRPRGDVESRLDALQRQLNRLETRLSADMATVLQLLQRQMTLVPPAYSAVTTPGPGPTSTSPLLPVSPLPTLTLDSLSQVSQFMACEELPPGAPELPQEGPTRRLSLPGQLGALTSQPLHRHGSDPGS

Row | SMILES | hERG current change (%, negative = inhibition) at 1uM [%]
1 | CC1CC(C)CN(Cc2nc(N)nc(Nc3ccc4ccccc4c3)n2)C1 (centres unmarked) | -61.1
2 | COC(=O)c1ccc(=O)n(CC(=O)c2ccc(Cl)cc2)c1 | 6.36
3 | CCC1CC(CSc2ncn[nH]2)OC1=O (centres unmarked) | 8.58
4 | Clc1ccc(-c2cn3nc4c(nc3n2)CCCC4)cc1 | 8.51
5 | CC12CCC(C(=O)Nc3nc4ccc(Br)cc4s3)(OC1=O)C2(C)C (centres unmarked) | 3.11
6 | CC1(O)CC(=O)N(c2ccccc2)O1 (centres unmarked) | -1.32
7 | CCOc1cc(CNc2ccc(N3CCN(C(C)=O)CC3)cc2)cc(Br)c1OC | -0.298
8 | CCC/C(O)=C1\C(=O)CCCC1=NCCc1c(C)[nH]c2ccc(OC)cc12 | 13.4
9 | CC/C(O)=C1\C(=O)CC(c2ccccc2)CC1=NCCc1c(C)[nH]c2ccc(C)cc12 (centres unmarked) | 4.75
10 | COc1ccc(C2C(C(=O)c3cccs3)=C(O)C(=O)N2c2cccc(C)n2)cc1 (centres unmarked) | 9.01
11 | COc1cc(C(=O)NCC2CCCO2)ccc1OCc1ccccc1Cl (centres unmarked) | -5.43
12 | O=C1CC(N2CCN(c3ccc(F)cc3)CC2)C(=O)N1c1ccc2c(c1)OCO2 (centres unmarked) | 7.88
13 | CC(=O)Nc1ccc(S(=O)(=O)Nc2ccc(Nc3ccccc3)cc2)cc1 | 16.4
14 | COC(=O)[C@@H]1C[C@@]2(O)[C@@H](O)[C@@H](O)[C@@H](O)C[C@H]2N1CC1CCCCC1 | 13.5
15 | O=C(Nc1cc([N+](=O)[O-])ccc1F)c1cccs1 | 11.3
16 | Cn1c(SCc2ccc(Br)cc2)nc2ccccc2c1=O | 13.4
17 | CCOc1ccccc1NS(=O)(=O)c1cn(C)nc1C | 12.2
18 | COc1c2c(cc3c1C(CC(O)Cc1ccccc1)N(C)CC3)OCO2 (centres unmarked) | -14
19 | CCOC(=O)Cc1csc(NC(=O)/C=C/c2cccc(Br)c2)n1 | 4.88
20 | CCCOc1ccc(C(CC(=O)O)NC(=O)c2sc3ccccc3c2Cl)cc1 (centres unmarked) | 1.55
21 | O=C(OCC(=O)N1CCCC1)c1cc(Cl)ccc1[N+](=O)[O-] | 13.5
22 | CN(C)c1ccc(/C=C(\Cl)c2nc3ccccc3s2)cc1 | 2.31

Row | SMILES | hERG current change (%, negative = inhibition) at 1uM [%]
23 | COc1ccc(/C=C/C(=O)OCc2cc(=O)n3c(n2)sc2ccccc23)cc1 | 15.8
24 | CN(Cc1ccccc1)C(=O)c1cc(S(=O)(=O)N2CCOCC2)cn1C | -4.84
25 | CCN(CC)S(=O)(=O)c1ccc2nc(CSc3nnnn3-c3ccc(O)cc3)[nH]c2c1 | 2.59
26 | CC(=O)N(C)N(C)c1cc(C)nc(N)n1 | 11
27 | COc1ccc(NC(=O)CN2CCN(S(=O)(=O)c3ccc(Cl)cc3)CC2)cc1Cl | 5.61
28 | CC(=O)Nc1ccc(S(=O)(=O)N2CCC(n3cnc4cc(F)ccc43)CC2)cc1 | -26.4
29 | CCNc1oc(-c2ccccc2F)nc1S(=O)(=O)c1ccccc1 | 10.7
30 | COc1ccc(-c2c(-c3ccccc3OC)sc3ccccc23)cc1C=O | 11.6
31 | Nc1c(Cl)ncnc1NCC(O)CO (centres unmarked) | 16.2
32 | CC(C)CC(NC(N)=O)C(=O)NCc1ccccc1Cl (centres unmarked) | 14.8
33 | C=CCN(CC=C)CCCOc1ccc(C)cc1OC.O=C(O)C(=O)O | -8.58
34 | CC(C)n1ncc2c(C(=O)Nc3ccc(S(C)(=O)=O)cc3)cc(C3CC3)nc21 | 33.4
35 | CC(CCc1ccccc1)NC(=O)CN1CCN(c2ccc(O)cc2)CC1 (centres unmarked) | -5.18
36 | CC(=O)Cn1ncc(N(C)Cc2ccccc2)c(Cl)c1=O | 11.6
37 | O=[N+]([O-])c1cc([N+](=O)[O-])c(Oc2cc(Cl)ccc2Cl)cc1NC1CCCCCCC1 | 18.6
38 | Cc1cc(Cl)ccc1OCc1nnc2n1CCCCC2 | 1.87
39 | Cc1ccccc1CCN(CC(=O)NC1CCCCC1)C(=O)c1csnn1 | 14.8
40 | CC(C)(C)c1ccc(NC(=O)CSc2nnc(-c3n[nH]c4ccccc34)o2)cc1 | -3.31
41 | O=C(Nc1cccc(F)c1)c1ccc(Cn2cc([N+](=O)[O-])cn2)o1 | 8.89
42 | O=C(CSc1nccc(=O)[nH]1)Nc1ccccc1Sc1ccccc1 | 10.8
43 | CC(=O)c1cccc(N(CC(=O)NCCc2ccccc2)C(=O)c2csnn2)c1 | 5.69
44 | CCn1cc(C(=O)N2CCN(Cc3ccc4c(c3)OCO4)CC2)c2cc(OC)c(OC)cc2c1=O | 4.88

From article PMC4336329 (PLoS ONE, 2015)
